Results as given in PMC4336329 (PLoS ONE, 2015).
The whole screen tested about 310,000 compounds, of which about 2,200 (0.71%) showed an effect of 50% or more. Effects have a minus sign here. The list shows a part of the results.

Each molecule was assayed against human ether-à-go-go-related gene (hERG) potassium channel (human, UniProt Q12809) (assay: primary screen, population patch clamp on CHO cells stably expressing hERG).
human ether-à-go-go-related gene (hERG) potassium channel, sequence (Q12809 whole entry, looked up): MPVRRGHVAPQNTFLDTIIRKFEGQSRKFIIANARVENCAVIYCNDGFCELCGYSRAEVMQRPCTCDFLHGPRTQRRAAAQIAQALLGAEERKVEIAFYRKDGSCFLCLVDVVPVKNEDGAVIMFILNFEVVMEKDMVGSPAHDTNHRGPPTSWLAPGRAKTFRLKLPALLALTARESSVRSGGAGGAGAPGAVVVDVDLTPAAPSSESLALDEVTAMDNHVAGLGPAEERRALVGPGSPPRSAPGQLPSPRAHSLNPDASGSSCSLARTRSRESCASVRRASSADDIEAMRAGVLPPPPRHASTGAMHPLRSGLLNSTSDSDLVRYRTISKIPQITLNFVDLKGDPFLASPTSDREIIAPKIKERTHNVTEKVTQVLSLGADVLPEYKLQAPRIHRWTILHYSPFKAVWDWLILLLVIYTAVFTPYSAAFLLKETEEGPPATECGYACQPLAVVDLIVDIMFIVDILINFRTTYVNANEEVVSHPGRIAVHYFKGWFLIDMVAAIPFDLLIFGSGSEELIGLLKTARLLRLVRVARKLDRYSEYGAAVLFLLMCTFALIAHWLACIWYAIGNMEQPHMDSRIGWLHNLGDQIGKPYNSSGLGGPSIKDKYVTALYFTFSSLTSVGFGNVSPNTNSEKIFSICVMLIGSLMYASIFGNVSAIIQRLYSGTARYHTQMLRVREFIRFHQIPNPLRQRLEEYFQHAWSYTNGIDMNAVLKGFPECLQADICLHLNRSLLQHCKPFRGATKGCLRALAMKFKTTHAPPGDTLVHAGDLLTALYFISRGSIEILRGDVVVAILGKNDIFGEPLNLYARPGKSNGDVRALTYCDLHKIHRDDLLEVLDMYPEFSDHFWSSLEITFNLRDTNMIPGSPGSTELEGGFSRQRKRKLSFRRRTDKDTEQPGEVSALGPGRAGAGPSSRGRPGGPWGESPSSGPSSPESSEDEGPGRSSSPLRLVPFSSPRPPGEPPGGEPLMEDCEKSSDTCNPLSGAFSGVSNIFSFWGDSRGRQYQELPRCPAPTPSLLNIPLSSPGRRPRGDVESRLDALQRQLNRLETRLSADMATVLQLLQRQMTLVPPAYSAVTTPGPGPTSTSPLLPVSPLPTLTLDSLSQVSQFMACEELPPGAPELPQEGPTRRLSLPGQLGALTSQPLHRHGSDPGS

Compound | hERG current change (%, negative = inhibition) at 1uM [%]
CCCCC/C=N/NC(=O)c1[nH]c2ccc([N+](=O)[O-])cc2c1C | 7.07
C/C=C(/C)C(=O)Nc1cccc(C2=NOC3(C2)C[C@H](C(N)=O)N(C(=O)c2ccccc2)C3)c1 (some centres unmarked) | 11.3
O=C1CCCC2=C1C(c1ccc(O)c(O)c1)c1c(ccc3ncccc13)N2 (centres unmarked) | 10.7
COC(=O)c1ccccc1NC(=O)c1ccc(COc2ccc3c(c2)CCC3)cc1 | 9.4
COc1ccc(C(C)(C)C)cc1NC(=O)CN1C(=O)C(=O)N(Cc2ccco2)C1=O | 9.33
COc1ccc(-n2c(C)c(C)c3c(N)ncnc32)cc1 | 13.3
Nc1nnc(SCC(=O)N2CCc3ccccc3C2)s1 | 10.8
CC(C)c1cc(C(=O)N2CCCC(CCC(=O)N3CCN(c4ccccn4)CC3)C2)no1 (centres unmarked) | -6.96
CC(Sc1nc2ccccc2c(=O)[nH]1)C(=O)O (centres unmarked) | 12.6
Cc1onc(-c2ccccc2)c1-c1n[nH]c(=S)n1-c1ccccc1 | 16.4
COc1ccc(N2CCN(C(CNC(C)=O)c3ccco3)CC2)cc1 (centres unmarked) | 10.2
Oc1ccc(Br)cc1/C=N/n1c(COc2ccccc2)n[nH]c1=S | 7.57
O=C(Nc1ccccc1)/C(=C/c1ccc([N+](=O)[O-])cc1)NC(=O)c1ccco1 | 5.78
O=C(COc1ccc([N+](=O)[O-])cc1)Nc1ccc2c(c1)nc1n2CCOC1 | -8.12
CN(C)CCCN1C(=O)CSC1c1ccccc1.Cl (centres unmarked) | 5.79
NC(=O)C1CCN(Cc2ccc(OCc3ccccc3)cc2)CC1.O=C(O)C(=O)O | 12.4
Cc1nc2cc(-c3ccsc3-n3c(C)ccc3C)[nH]n2c(=O)c1Cl | 8.31
COC(=O)c1ccc(NC(=S)Nc2cccc(C)n2)cc1 | 3.31
Cc1ccc(S(=O)(=O)N2CCOCC2)cc1NC(=O)CSc1ncccn1 | 8.69
Cc1ccc(CNC(=O)CSc2nc3c(sc4ccccc43)c(=O)n2CCCN2CCCC2)cc1 | -57.9
O=C(Nc1ccc(Br)cc1)c1cccc(N2C(=O)C3CCCCC3C2=O)c1 (centres unmarked) | 4.31
CCC(C)(C)C1CCc2c(sc(NC(=O)c3ccccc3C(=O)O)c2C#N)C1 (centres unmarked) | 11.6

Compound | hERG current change (%, negative = inhibition) at 1uM [%]
CCN(CC)S(=O)(=O)c1cccc(C(=O)Oc2cccnc2)c1 | 6.69
CCS(=O)(=O)C(C)(CCl)C(=O)Nc1ccc(C(=O)OC)cc1 (centres unmarked) | 7.99
Cc1ccc(NC(=S)NC(NC(=O)C(C)(C)C)C(Cl)(Cl)Cl)c(C)c1 (centres unmarked) | 10.3
COC(=O)c1ccc(CN2CCCC(CO)(Cc3ccccc3F)C2)cc1 (centres unmarked) | -0.373
CCOCCCNc1nc2c(C)cccn2c(=O)c1/C=C1\SC(=S)N(C(C)CC)C1=O (centres unmarked) | 10.1
Cc1ccc(C(=O)OCC(=O)N2C(C)CCCC2C)cc1S(=O)(=O)N1CCOCC1 (centres unmarked) | 3.41
COn1c(-c2ccccc2)nc2ccc(Cl)cc21 | -0.278
N/C(=N\S(=O)(=O)c1ccccc1)c1ccc([N+](=O)[O-])cc1 | -4.75
COc1ccc(S(=O)(=O)N2CCN=C2SCc2cccc(F)c2)cc1 | 9.72
COc1ccc(S(=O)(=O)N2CCCC(C(=O)NCC3CCCO3)C2)cc1C (centres unmarked) | -0.826
CCCCN(C(=O)C(C)(C)Oc1ccc(Cl)cc1)c1c(N)n(CCC)c(=O)[nH]c1=O | 7.71
CCc1nnc(NC(=O)CSc2nc3cc4c(cc3cc2CC)OCCO4)s1 | 1.97
CCCN1CCN(C(=O)c2noc3c2COc2ccc(C)cc2-3)CC1 | 10.5
COc1ccccc1NS(=O)(=O)c1cc(NC(=O)C2=NNC(=O)CC2)ccc1C | 6.92
Cc1nn2c(=O)cc(CSc3ccccc3NC(=O)c3ccccc3)nc2s1 | 4.5
CC(C(=O)NC1CC(C)(C)NC(C)(C)C1)c1ccc([N+](=O)[O-])cc1 (centres unmarked) | 6.13
CC(=O)Nc1ccc(C(C#N)c2ccccc2)cc1 (centres unmarked) | 14.6
O=C(OCC(=O)N1CCN(C(=O)c2ccco2)CC1)c1ccccc1OCc1ccccc1 | -3.06
CC(=O)Nc1ccc(S(=O)(=O)NC2(C(F)(F)F)C(=O)Nc3c2c(=O)[nH]c(=O)n3Cc2ccccc2)cc1 (centres unmarked) | 11.7
CCN(c1ccccc1)S(=O)(=O)c1ccc2c(c1)N(C(C)=O)CCO2 | 12
Cc1cc(C(=O)N2CCN(C/C=C/c3ccccc3)CC2)cs1 | -6.41
CCOc1ccc2c(c1)c(N=NC(N)=S)c(O)n2C | 9.76
